# In the supplement of paper PMC12217912:
# The list shows a part of the results. The full chains were built here from the parent and the listed change. Inactive controls read about 0.05.
# B1: TEV protease; numbered along this chain (parent)
# chain: MGESLFKGPRDYNPISSSICHLTNESDGHTTSLYGIGFGPFIITNKHLFRRNNGTLVVQSLHGVFKVKDTTTLQQHLVDGRDMIIIRMPKDFPPFPQKLKFREPQREERICLVTTNFQTKSMSSMVSDTSCTFPSGDGIFWKHWIQTKDGQCGSPLVSTRDGFIVGIHSASNFTNTNNYFTSVPKNFMELLTNQEAQQWVSGWRLNADSVLWGGHKVFMVKPEEPFQPVKEATQL
# Variants of: B1
# Assay: raw area under fraction-flipped curve 0-4 h after induction (AUC4h, not background-subtracted), DNA-recorder readout of cleavage of the substrate (dimensionless); higher = more cleavage of the substrate by the protease variant
# Conditions: temperature: 34 °C; time window: 0-4 h after rhamnose induction
# Experimental: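 In vivo DNA recorder in E. coli TOP10(DE3) ΔrhaA at 34 °C. Each TEVp single-site mutant (parent TEVp 0) is paired with a single-site variant of the 7-mer TEVs (canonical ENLYFQ|S). The substrate sits between flexible linkers in a Bxb1-sfGFP-TEVs-SsrA fusion, so cleavage stabilises Bxb1 and speeds flipping of a recombination array, read by NGS. The value is the raw area under the fraction-flipped curve over 0-4 h after rhamnose induction (AUC4h), with ≥20 reads per time point. It is not background-subtracted; inactive controls average about 0.047.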
# 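Also: Bxb1 expression induced with 0.2% (w/v) L-rhamnose at OD600 near 0.5, cultures sampled hourly, flipped fraction per protease–substrate barcode pair counted by paired-end Illumina sequencing.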
Variant,area with substrate DNLYFQS,area with substrate GNLYFQS,area with substrate HNLYFQS,area with substrate INLYFQS,area with substrate PNLYFQS,area with substrate SNLYFQS,area with substrate TNLYFQS,area with substrate WNLYFQS,area with substrate LNLYFQS,area with substrate MNLYFQS,area with substrate FNLYFQS,area with substrate NNLYFQS,area with substrate RNLYFQS,area with substrate YNLYFQS,area with substrate KNLYFQS,area with substrate QNLYFQS,area with substrate VNLYFQS
D128P,0.0893,0.083,0.0637,0.0611,0.0772,0.0686,0.1,0.0769,–,–,–,–,–,–,–,–,–
Q105H,0.0861,0.0623,–,–,–,0.0761,0.046,–,0.0565,0.0749,–,–,–,–,–,–,–
D82E,0.0449,0.0611,0.0718,–,0.0698,0.0557,0.0728,0.0511,0.0542,0.0651,0.0603,0.0597,0.0486,0.0413,–,–,–
E107C,0.106,0.0715,0.0676,–,–,–,0.0651,–,0.0612,0.0542,–,–,–,0.0645,0.0644,–,–
G138D,0.0884,–,–,–,0.0642,–,0.0748,–,0.061,0.0767,–,–,–,–,0.0601,0.0658,–
I85G,0.0531,0.048,0.0489,0.0536,–,–,0.016,0.0484,–,–,–,–,0.0533,0.0373,–,0.0286,–
T129Y,0.0715,–,–,0.0596,–,–,0.0551,0.0445,0.0583,–,–,–,–,–,–,–,–
T129S,0.121,–,0.0783,0.0489,0.0658,0.0665,0.0563,0.0454,0.0707,0.0626,0.0523,0.0659,–,0.0428,0.0901,0.0974,0.0613
T115S,0.0817,0.0633,0.0742,0.0688,–,0.0622,0.066,0.0574,0.0629,–,0.0661,0.065,–,0.0674,–,0.0583,0.0754
T115V,0.0901,–,0.0634,0.0671,0.0462,–,0.0558,0.071,0.0497,–,0.0551,–,0.0726,–,0.0975,–,–
T115D,0.119,0.0413,0.0618,0.067,–,0.066,–,0.0569,–,0.0562,0.0672,0.0736,0.0722,0.0646,0.0716,0.0571,–
T132L,0.0703,0.067,0.0708,0.0402,0.0714,0.0704,0.0556,–,0.0598,–,–,–,–,0.056,–,0.0697,–
T132W,0.0669,0.0716,–,0.0595,–,–,0.06,0.082,0.0559,0.0534,0.0559,–,–,0.031,–,–,–
T132P,0.0654,–,0.0713,0.0611,0.0552,0.0492,0.0552,0.0628,–,0.057,–,–,–,0.0662,0.0619,0.0669,–
T132H,0.0669,–,0.0585,–,0.0667,–,0.0505,0.0573,0.0461,–,0.0457,–,–,0.0562,–,–,–
D91V,0.0803,0.0644,–,0.0571,0.0657,0.0686,0.0648,–,0.0636,–,–,–,–,–,–,–,–
V78M,0.0789,0.0703,0.0599,0.0689,0.065,0.0647,0.0918,0.0564,–,0.0632,0.0834,0.0576,0.0389,–,0.054,–,–

Variant,area with substrate DNLYFQS,area with substrate GNLYFQS,area with substrate HNLYFQS,area with substrate INLYFQS,area with substrate PNLYFQS,area with substrate SNLYFQS,area with substrate TNLYFQS,area with substrate WNLYFQS,area with substrate LNLYFQS,area with substrate MNLYFQS,area with substrate FNLYFQS,area with substrate NNLYFQS,area with substrate RNLYFQS,area with substrate YNLYFQS,area with substrate KNLYFQS,area with substrate QNLYFQS,area with substrate VNLYFQS
V78K,0.0626,0.0427,0.0588,0.0377,0.0578,0.0546,–,0.0508,0.0498,–,–,0.0515,–,0.0421,0.049,0.0403,–
V78T,0.0641,0.0708,0.0317,–,0.0611,0.0653,0.0592,0.0192,–,–,0.055,–,–,0.0622,–,–,0.0737
P93R,0.0791,–,0.048,–,0.0733,–,0.0755,0.0761,–,–,–,–,–,0.0935,–,–,0.0654
P93H,0.0866,0.0631,0.06,0.0368,0.0615,0.0677,0.0622,0.0687,–,0.0626,–,0.0657,–,–,–,–,–
G80F,0.0881,–,–,–,0.0783,–,0.0713,0.0646,–,–,–,0.0536,–,–,–,0.0759,0.0667
T72Y,0.0939,–,–,0.0604,–,–,0.0689,0.0497,0.057,–,–,0.0458,0.0792,0.0568,0.0775,–,–
K98Y,0.084,0.0663,0.0764,0.0769,0.0743,0.0558,–,0.0713,0.0668,0.0637,0.0516,0.0789,0.0676,0.0549,0.0746,–,0.0875
K120R,0.0665,0.0986,0.0662,0.0563,0.0802,0.0582,0.0691,0.0594,0.0569,0.0648,0.0617,0.0716,–,0.0541,0.0774,0.0736,0.0646
K120M,0.0545,0.0874,0.063,–,0.0721,0.0606,–,0.0531,0.0631,–,0.0545,0.0686,–,0.0677,0.0883,–,0.0408
S130L,0.0672,0.0609,0.0659,0.0625,–,0.0441,0.0599,0.0481,0.062,–,0.0533,0.0451,0.0504,0.0652,0.0584,–,0.0482
Q75T,0.0856,–,0.0716,–,0.0661,–,0.0634,0.0546,0.0632,0.0619,0.0669,–,–,0.0646,–,0.063,0.05
Q75H,0.062,–,0.0544,–,0.051,0.0702,0.0694,0.0594,–,–,0.0632,0.0382,–,–,–,–,–
T114C,0.0861,–,0.0444,–,–,0.077,0.0762,–,–,–,–,0.0468,–,–,0.0596,–,–
R87P,0.0734,–,–,0.0536,–,–,0.0656,0.039,–,0.073,–,–,–,0.0478,–,–,–
P134K,0.0771,–,–,0.0568,0.0654,0.0536,–,–,–,0.077,–,0.0821,–,–,0.0903,–,0.0678
P134I,0.0616,–,0.0498,0.0432,0.0567,0.0556,0.0691,0.0417,–,–,–,0.0736,–,–,0.0644,–,0.0765
S121R,0.0852,0.0734,0.0801,0.0649,0.0686,0.0802,0.0676,0.0611,0.0705,0.0756,0.0702,0.0616,0.038,0.0605,0.0784,–,0.0742
